Results: the supplement of paper PMC4967469
The IC50 comes from the fitted curve, where viability falls to half of the control; where the fit passes the top or lowest dose, that dose stands as a limit. AUC is the area under the same curve over the 256-fold range up to the top dose, as a fraction; the more sensitive the line, the further below 1. For some of these results: An inferred top dose was derived from the fitted curves, not read from the paper. For some of these results: Drugs with an entry number were screened twice under separate entries, and the two screens often disagree.

Legend:
Assay in all cases: Viability of human cancer cell lines after 72 h of drug (GDSC screen)
5-Fluorouracil = compound: O=c1[nH]cc(F)c(=O)[nH]1 [5-Fluorouracil]; conditions: top dose 32 µM; top dose inferred
Description: (§1)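 Human cancer cell lines in 384-well plates, medium with 10% serum, drug for 72 h over a 256-fold dose range (nine 2-fold or five 4-fold steps up to the top dose). Adherent lines were fixed and stained with the nucleic acid dye Syto60, suspension lines read with resazurin; signal relative to control wells, capped at 0 and 100%. One two-parameter sigmoid per drug and line, fitted in a mixed model over all curves with the slope shared within a line.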

CUDC-101 = compound: C#Cc1cccc(Nc2ncnc3cc(OC)c(OCCCCCCC(=O)NO)cc23)c1 [CUDC-101]; conditions: top dose 5.12 µM; top dose inferred
Description: as §1

OSU-03012 = compound: NCC(=O)Nc1ccc(-n2nc(C(F)(F)F)cc2-c2ccc3c(ccc4ccccc43)c2)cc1 [OSU-03012]; conditions: top dose 16 µM; top dose inferred
Description: as §1

JNK-9L = compound: Fc1cc(-c2ccnc(Nc3ccc(-n4cnc(N5CCOCC5)n4)cc3)n2)cc(N2CCOCC2)c1 [JNK-9L]; conditions: top dose 5.12 µM; top dose inferred
Description: as §1

AC220 = compound: CC(C)(C)c1cc(NC(=O)Nc2ccc(-c3cn4c(n3)sc3cc(OCCN5CCOCC5)ccc34)cc2)no1 [AC220]; conditions: top dose 1.024 µM; top dose inferred
Description: as §1

RDEA119 = compound: COc1cc(F)c(F)c(Nc2ccc(I)cc2F)c1NS(=O)(=O)C1(C[C@H](O)CO)CC1 [RDEA119]; conditions: top dose 5 µM, top dose inferred
Description: as §1

QS11 = compound: OC[C@H](Cc1ccccc1)Nc1nc(Oc2ccc3c(c2)CCC3)nc2c1ncn2Cc1ccc(-c2ccccc2)cc1 [QS11]; conditions: top dose 10.24 µM
Description: as §1

Cell Line | AUC (5-Fluorouracil) | IC50 (5-Fluorouracil) [µM] | AUC (CUDC-101) | IC50 (CUDC-101) [µM] | AUC (OSU-03012) | IC50 (OSU-03012) [µM] | AUC (JNK-9L) | IC50 (JNK-9L) [µM] | AUC (AC220) | IC50 (AC220) [µM] | AUC (RDEA119; screen: GDSC drug entry 1014) | IC50 (RDEA119; screen: GDSC drug entry 1014) [µM] | AUC (RDEA119; screen: GDSC drug entry 1526) | IC50 (RDEA119; screen: GDSC drug entry 1526) [µM] | AUC (QS11) | IC50 (QS11) [µM]
HA7-RCC (kidney, adherent) | 0.98 | > 32 | 0.978 | > 5.12 | 0.697 | 3.83 | 0.61 | 0.664 | 0.985 | > 1.02 | 0.891 | > 5 | 0.957 | > 5 | 0.932 | > 10.2
HAL-01 (lymphoblastic leukaemia, suspension) | 0.624 | 4.21 | 0.62 | 0.658 | 0.688 | 3.13 | 0.589 | 0.543 | 0.908 | > 1.02 | 0.686 | 0.968 | 0.857 | 3.35 | 0.883 | 8.77
HARA (lung squamous cell carcinoma, adherent) | 0.743 | 11.3 | 0.582 | 0.559 | 0.69 | 3.77 | 0.673 | 1.06 | 0.982 | > 1.02 | 0.856 | > 5 | 0.852 | 4.92 | 0.968 | > 10.2
HC-1 (hairy cell leukaemia, suspension) | 0.467 | 1.63 | 0.351 | 0.126 | 0.68 | 3.12 | 0.456 | 0.244 | 0.931 | > 1.02 | 0.914 | > 5 | 0.861 | 3.95 | 0.925 | > 10.2
HCC38 (breast, adherent) | 0.72 | 8.93 | 0.544 | 0.426 | 0.839 | 12.2 | 0.747 | 1.75 | 0.978 | > 1.02 | 0.968 | > 5 | 0.972 | > 5 | 0.985 | > 10.2
HCC1143 (breast, adherent) | 0.979 | > 32 | 0.487 | 0.291 | 0.864 | > 16 | 0.648 | 0.971 | 0.979 | > 1.02 | 0.683 | 1.25 | 0.739 | 2.02 | 0.943 | > 10.2
HCC1395 (breast, adherent) | 0.972 | > 32 | 0.9 | > 5.12 | 0.749 | 6.11 | 0.591 | 0.599 | 0.983 | > 1.02 | 0.934 | > 5 | 0.9 | > 5 | 0.93 | > 10.2
HCC1419 (breast, adherent) | 0.968 | > 32 | 0.721 | 1.8 | 0.865 | > 16 | 0.654 | 1.03 | 0.918 | > 1.02 | 0.972 | > 5 | 0.965 | > 5 | 0.957 | > 10.2
HCC1569 (breast, adherent) | 0.94 | > 32 | 0.63 | 0.827 | 0.744 | 6.46 | 0.539 | 0.424 | 0.879 | > 1.02 | 0.917 | > 5 | 0.88 | > 5 | 0.892 | > 10.2
HCC1954 (breast, adherent) | 0.94 | > 32 | 0.642 | 0.844 | 0.793 | 8.72 | 0.573 | 0.523 | 0.969 | > 1.02 | 0.925 | > 5 | 0.86 | > 5 | 0.877 | > 10.2
HCC2157 (breast, suspension) | 0.787 | 14.7 | 0.821 | 3.15 | 0.869 | > 16 | 0.594 | 0.588 | 0.685 | 0.217 | 0.951 | > 5 | 0.985 | > 5 | 0.851 | 8.49
HCC2218 (breast, suspension) | 0.74 | 11.8 | 0.642 | 0.879 | 0.839 | 15.2 | 0.708 | 1.46 | 0.967 | > 1.02 | 0.968 | > 5 | 0.978 | > 5 | 0.891 | > 10.2
HCC2998 (large intestine, adherent) | 0.746 | 9.91 | 0.699 | 1.14 | 0.708 | 3.8 | 0.682 | 1.01 | 0.988 | > 1.02 | – | – | 0.608 | 0.611 | 0.92 | > 10.2
HCC-15 (lung squamous cell carcinoma, adherent) | 0.948 | > 32 | 0.898 | > 5.12 | 0.733 | 5.69 | 0.694 | 1.32 | 0.978 | > 1.02 | 0.504 | 0.322 | 0.368 | 0.121 | 0.86 | > 10.2
HCC-56 (large intestine, adherent) | 0.767 | 12.2 | 0.349 | 0.121 | 0.722 | 4.33 | 0.568 | 0.492 | 0.852 | 0.825 | 0.342 | 0.113 | 0.672 | 0.958 | 0.878 | > 10.2
HCE-4 (oesophagus, adherent) | 0.986 | > 32 | 0.971 | > 5.12 | 0.615 | 1.96 | 0.584 | 0.525 | 0.991 | > 1.02 | – | – | 0.936 | > 5 | 0.885 | 8.44
HD-MY-Z (Hodgkin lymphoma, adherent) | 0.753 | 10.7 | 0.482 | 0.285 | 0.762 | 5.76 | 0.724 | 1.39 | 0.876 | > 1.02 | 0.666 | 0.909 | 0.772 | 1.94 | 0.93 | > 10.2
